# Data: PubChem BioAssay AID1508642 (National Center for Advancing Translational Sciences (NCATS), 2021)
# The campaign covered roughly 43,000 compounds. About 200 (0.47%) were called active. Another 12% or so got no clear call; they are omitted. Calls come from the whole dose curve; as a rule, active = well fitted cell-killing curve with a large enough effect; inconclusive = small, poorly fitted or top-dose-only effect, or effect the other way; inactive = flat fitted curve, though single readings scatter. The list shows a part of the results.
# Assay: Cell viability qHTS assay in S16 Pmp22-F2sN cells; note: nearly all actives have a fitted effect of over 65% in size
# Conditions: S16 Pmp22-F2sN Schwann cells (luciferase reporters placed in the Pmp22 gene) viability, CellTiter-Glo, 24 h; series mostly up to 57.5 µM; activity change, negative = cytotoxicity: at the top concentration
# Procedure, shortened: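 S16 Schwann cells carrying the Pmp22-F2sN reporter, seeded in 1536-well format, were exposed to library compounds for 24 h at 37C. Viability was read as CellTiter-Glo luminescence after 15 min at room temperature.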
# % is set by controls: 0 for no effect and ±100 for the full control effect.
row,Structure (SMILES),"activity change, negative = cytotoxicity"
1,CCOC(=O)c1c(NC(=O)COc2ccc(CC)cc2)sc2c1CCCC2,inactive: 13.2%
2,Cc1ccc(N2C(=O)CS(=O)(=O)C23C(=O)N(Cc2ccccc2C)c2ccccc23)cc1Cl (stereo unspecified),inactive: 5.77%
3,CN1CCN(C(=O)Cn2c(-c3cccs3)cc3ccccc32)CC1,inactive: -1.63%
4,COc1ccc(NC(=O)Cn2nc(-c3ccccc3)c3cnc4ccc(C)cc4c32)cc1,inactive: -5.92%
5,CCCNC(=O)c1ccc2c(c1)nc(C)n2-c1cccc(C)c1,inactive: -24.1%
6,Cc1ccc2c(=O)c(C(=O)c3ccccc3)cn(CC(=O)Nc3ccc(C)c(Cl)c3)c2n1,inactive: -27.9%
7,Cc1nn(C)c2c1c(C(F)(F)F)cc(=O)n2C(C)C(=O)NCCC(C)C (stereo unspecified),inactive: 6.61%
8,Cc1ccc(-c2nc(C(=O)N3CCN(c4ccccc4)CC3)c3n2CCCCC3)cc1,inactive: 20.1%
9,COc1ccc(NC(=O)C(NC(=O)C2CCC(C)CC2)C(C)C)cc1 (stereo unspecified),inactive: 9.22%
10,CCC(Sc1ncccc1C(=O)Oc1ccccc1Cl)C(=O)Nc1ccccc1OC (stereo unspecified),inactive: -3.23%
11,COc1cccc(Cn2ccn(-c3ccc(F)cc3)c(=O)c2=O)c1,inactive: 14.8%
12,O=C(Nc1ccc(Cl)cc1)N1CCC(CN2CCCCCC2)CC1,inactive: -1.9%
13,Cc1ccc(C(=O)c2oc3ccccc3c2NC(=O)c2cc(=O)c3cc(C)ccc3o2)cc1,inactive: 3.84%
14,COC(=O)c1ccc(-n2nnc(-c3nc(-c4ccccc4Cl)no3)c2C)cc1,inactive: -2.02%
15,CCNC(=O)C1CCCN(c2ncnc3onc(C)c23)C1 (stereo unspecified),inactive: -1.23%
16,COc1ccc(NC(=O)Cn2cc(C(=O)c3ccncc3)c(=O)c3cc(C)ccc32)cc1Cl,inactive: -3.66%
17,Cc1cccc(Cn2c(SCc3ccc(C(=O)NCc4ccccc4)cc3)nc3cccnc32)c1,inactive: -28.2%
18,Cc1nc(N2CCOCC2)c2c(C(=O)N(C)Cc3ccccc3)c(C)oc2n1,inactive: 0.998%
19,CCOc1cccc2sc(N3CCN(C(=O)C(C)(C)C)CC3)nc12,inactive: 7%
20,CCOC(=O)C1CCN(c2cc(C)nc3c(-c4ccccc4OC)c(C)nn23)CC1,inactive: 9.61%
21,O=C(Cn1nc(-c2ccccc2)c2cnc3ccc(F)cc3c21)NC1CCCC1,inactive: 4.11%

row,Structure (SMILES),"activity change, negative = cytotoxicity"
1,O=C(Nc1nnc(S(=O)(=O)N2CCCCCC2)s1)c1ccccc1F,inactive: 3.4%
2,Cc1ccc(-c2nnc(SCC(=O)N3CCCc4ccccc43)o2)cc1,inactive: 2.73%
3,Cc1cc(NC(=O)CSc2nc3c([nH]c4ccccc43)c(=O)n2-c2ccccc2F)no1,inactive: 16.7%
4,CC(C)(CC(=O)OCC(=O)Nc1ccccc1F)CC1=NS(=O)(=O)c2ccccc2N1,inactive: 18%
5,O=C(COc1ccc([N+](=O)[O-])cc1)N1CCC(c2nc3ccccc3s2)CC1,inactive: -14.5%
6,COc1cc(NC(=O)c2ccc3c(Cl)c4c(nc3c2)CCC4)cc(OC)c1OC,inactive: 28.2%
7,CC(=O)c1cccc(-n2c(=O)c3c4c(sc3n(CC(=O)Nc3ccccc3F)c2=O)CN(C(C)=O)CC4)c1,inactive: 0.332%
8,CCOc1ccc(N(C(C)C(=O)NCCSc2ccc(Cl)cc2)S(C)(=O)=O)cc1 (stereo unspecified),inactive: -4.05%
9,COc1ccc(N2Cc3cccc(C(=O)Nc4ccc(Cl)cc4)c3C2=O)cc1,inactive: 3.73%
10,CCOc1ccc(-c2nonc2NC(=O)c2oc3cc(C)ccc3c2C)cc1OCC,inactive: -9.74%
11,O=C(COc1ccc(F)cc1)Nc1nnc(SCc2cc(=O)n3ccccc3n2)s1,inactive: -14.7%
12,COc1ccc(C)cc1NC(=O)C(Cc1ccccc1)NS(=O)(=O)c1ccc(Br)s1 (stereo unspecified),inactive: 1.47%
13,Cc1ccc(CN(Cc2ccco2)C(=O)COc2cccc(C)c2C)o1,inactive: -14.9%
14,CCOC(=O)C1CCCN(C(=O)c2ccc3c(c2)sc2nc(-c4ccc(C)cc4C)cn23)C1 (stereo unspecified),inactive: -7.64%
15,O=C(Nc1nc2n(n1)C(c1ccccc1)C=C(c1ccc(Cl)cc1)N2)c1ccco1 (stereo unspecified),inactive: -15.3%
16,COc1cccc(Cn2c(SCc3ccc(C(=O)N4CCCCC4)cc3)nc3ccncc32)c1,inactive: -20.2%
17,Cc1cc(Cl)ccc1NC(=O)CN1C(=O)COc2ccc(S(=O)(=O)Nc3ccccc3)cc21,inactive: 2.14%
18,Cc1ccc(Cl)cc1NC(=O)CCc1c(C)nc2c3cccnc3nn2c1C,inactive: -9.71%
19,O=C(c1cccc(Cl)c1)N1c2ncnn2C2(CCCCC2)[C@@H]2CCCC[C@@H]21,inactive: -4.31%
20,Cc1ccc2c(=O)cc(C(=O)Nc3sc4c(c3C(=O)NCC3CCCO3)CCCC4)oc2c1C (stereo unspecified),inactive: 3.8%
21,CC(C)(C)OC(=O)N1CCC(c2c(C(=O)NCCN3CCOCC3)cnn2-c2ccc(F)cc2)CC1,inactive: -0.527%

row,Structure (SMILES),"activity change, negative = cytotoxicity"
1,COc1ccc(-c2ccc3c(N)c(C(=O)NCc4ccc(C)cc4)sc3n2)cc1,inactive: 6.48%
2,Cc1ccc2c(c1)N(C(=O)N1CCC(C(=O)NCCc3ccccc3)CC1)CC(C)O2 (stereo unspecified),inactive: -2.36%
3,Cc1ccc(NC(=O)CSc2nc3ccc(NC(=O)CCc4ccccc4)cc3s2)cc1,inactive: 25.9%
4,CCN1CCN(Cc2c(O)ccc3c(=O)c(Oc4ccccc4C(C)C)c(C(F)(F)F)oc23)CC1,inactive: -2.41%
5,CCCN1CCN(CCCNC(=O)Cn2nc(C)n3c(cc4c(OC)cccc43)c2=O)CC1,inactive: 8.27%
6,COc1ccc(C(=O)N(Cc2ccc(N(C)C)cc2)CC2CCCO2)cc1 (stereo unspecified),inactive: 18.1%
7,COc1ccc(NC(=O)CSc2cn(CCNC(=O)c3c(F)cccc3F)c3ccccc23)cc1,inactive: 7.49%
8,CC(=O)Nc1ccc2nc(NC(=O)CS(=O)(=O)c3ccc(C)cc3)sc2c1,inactive: -1.3%
9,CCC(C)n1c(=N)c(C(=O)NC2CCCCC2)cc2c(=O)n3ccccc3nc21 (stereo unspecified),inactive: -20%
10,COc1ccc(C2=Nc3ccc(OC(F)(F)F)cc3NC(c3cccnc3)=N2)cc1,inactive: -17.7%
11,Cc1ccc(C)c(N2CCN(S(=O)(=O)c3cn(C)c(C)n3)CC2)c1,inactive: 7.19%
12,Cc1ccc(CNC(=O)c2cc3ccc4cccnc4c3[nH]2)cc1,inactive: 0.604%
13,Cc1ccc(NC(=O)Cn2cnc3c2c(=O)n(C)c(=O)n3C)cc1C,inactive: -19.5%
14,CCN(C(=O)Cn1c(=O)n(Cc2ccccc2)c(=O)c2c1c1cc(OC)ccc1n2C)c1ccccc1,inactive: 25.3%
15,COc1ccc(-c2noc(-c3ccc(NC4CCCC4)c([N+](=O)[O-])c3)n2)cc1OC,inactive: -7.9%
16,Cc1ccccc1CNC(=O)c1ccc2nc(C(C)C)oc2c1,inactive: 1.42%
17,COc1cc(Cl)c(C)cc1NC(c1ccccc1)c1nnc(-c2ccccc2Cl)o1 (stereo unspecified),inactive: -12.3%
18,Cc1ccc(C)c(CSc2nnc3[nH]c(=O)cc(-c4ccccc4)n23)c1,inactive: 13.4%
19,COc1ccc(CNC(=O)C2CCN(S(=O)(=O)c3ccc4c(c3)CCCN4C(C)=O)CC2)cc1,inactive: 0.244%
